# The supplement of paper PMC8728848
# This is one part of the list.
# B1: Calsepa (Calystegia sepium), P93114 (protein)
# chain: MAVPMDTISGPWGNNGGNFWSFRPVNKINQIVISYGGGGNNPIALTFSSTKADGSKDTITVGGGGPDSITGTEMVNIGTDEYLTGISGTFGIYLDNNVLRSITFTTNLKAHGPYGQKVGTPFSSANVVGNEIVGFLGRSGYYVDAIGTYNRHK
# Columns and labels:
# Assay in all cases: glycan array binding signal (z-score within array); higher = stronger binding
# Settings in all cases: glycan notation: IUPAC condensed, linker removed
# [1] = molecular target: Gal(b1-4)GlcNAc(b1-2)Man(a1-3)[Man(a1-6)]Man(b1-4)GlcNAc(b1-4)GlcNAc
# Outline: (§1)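 The binding signal is a Z-score computed within each array and averaged over linkers. Arrays of the same protein sequence at different concentrations or buffers were also averaged together. Data originate from 3228 arrays in the Consortium for Functional Glycomics database, kept only where the protein sequence was available.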
# [2] = molecular target: Gal(b1-4)GlcNAc(b1-2)Man(a1-6)Man(b1-4)GlcNAc(b1-4)GlcNAc
# Outline: as §1
# [3] = molecular target: Gal(b1-4)GlcNAc(b1-2)Man(a1-6)[GlcNAc(b1-2)Man(a1-3)]Man(b1-4)GlcNAc(b1-4)GlcNAc
# Outline: as §1
# [4] = molecular target: Gal(b1-4)GlcNAc(b1-2)Man(a1-6)[Man(a1-3)]Man(b1-4)GlcNAc(b1-4)GlcNAc
# Outline: as §1
# [5] = molecular target: Gal(b1-4)GlcNAc(b1-2)[Gal(b1-4)GlcNAc(b1-4)]Man(a1-3)[Gal(b1-4)GlcNAc(b1-2)Man(a1-6)]Man(b1-4)GlcNAc(b1-4)GlcNAc
# Outline: as §1
# [6] = molecular target: Gal(b1-4)GlcNAc(b1-2)[Gal(b1-4)GlcNAc(b1-4)]Man(a1-3)[Gal(b1-4)GlcNAc(b1-2)[Gal(b1-4)GlcNAc(b1-6)]Man(a1-6)]Man(b1-4)GlcNAc(b1-4)GlcNAc
# Outline: as §1
# [7] = molecular target: Gal(b1-4)GlcNAc(b1-2)[Gal(b1-4)GlcNAc(b1-4)]Man(a1-3)[GlcNAc(b1-4)][Gal(b1-4)GlcNAc(b1-2)Man(a1-6)]Man(b1-4)GlcNAc(b1-4)GlcNAc
# Outline: as §1
# [8] = molecular target: Gal(b1-4)GlcNAc(b1-2)[Gal(b1-4)GlcNAc(b1-4)]Man(a1-3)[GlcNAc(b1-4)][Gal(b1-4)GlcNAc(b1-2)[Gal(b1-4)GlcNAc(b1-6)]Man(a1-6)]Man(b1-4)GlcNAc(b1-4)GlcNAc
# Outline: as §1
# [9] = molecular target: Gal(b1-4)GlcNAc(b1-2)[Gal(b1-4)GlcNAc(b1-4)]Man(a1-3)[GlcNAc(b1-4)][Gal(b1-4)GlcNAc(b1-2)[Gal(b1-4)GlcNAc(b1-6)]Man(a1-6)]Man(b1-4)GlcNAc(b1-4)[Fuc(a1-6)]GlcNAc
# Outline: as §1
# [10] = molecular target: Gal(b1-4)GlcNAc(b1-2)[Gal(b1-4)GlcNAc(b1-6)]Man(a1-6)[Gal(b1-4)GlcNAc(b1-2)Man(a1-3)]Man(b1-4)GlcNAc(b1-4)GlcNAc
# Outline: as §1
# [11] = molecular target: Gal(b1-4)GlcNAc(b1-2)[Gal(b1-4)GlcNAc(b1-6)]Man(a1-6)[Gal(b1-4)GlcNAc(b1-2)Man(a1-3)]Man(b1-4)GlcNAc(b1-4)[Fuc(a1-6)]GlcNAc
# Outline: as §1
# [12] = molecular target: Gal(b1-4)GlcNAc(b1-2)[Gal(b1-4)GlcNAc(b1-6)]Man(a1-6)[GlcNAc(b1-4)][Gal(b1-4)GlcNAc(b1-2)Man(a1-3)]Man(b1-4)GlcNAc(b1-4)GlcNAc
# Outline: as §1
# [13] = molecular target: Gal(b1-4)GlcNAc(b1-3)Gal(b1-3)GlcNAc
# Outline: as §1
# [14] = molecular target: Gal(b1-4)GlcNAc(b1-3)Gal(b1-4)Glc
# Outline: as §1
# [15] = molecular target: Gal(b1-4)GlcNAc(b1-3)Gal(b1-4)GlcNAc
# Outline: as §1
# [16] = molecular target: Gal(b1-4)GlcNAc(b1-3)Gal(b1-4)GlcNAc(b1-3)Gal(b1-4)GlcNAc
# Outline: as §1
# [17] = molecular target: Gal(b1-4)GlcNAc(b1-3)Gal(b1-4)[Fuc(a1-3)GlcNAc(b1-6)]Gal(b1-4)Glc
# Outline: as §1
# [18] = molecular target: Gal(b1-4)GlcNAc(b1-3)Gal(b1-4)[Fuc(a1-3)]GlcNAc(b1-3)Gal(b1-4)[Fuc(a1-3)]GlcNAc
# Outline: as §1
# [19] = molecular target: Gal(b1-4)GlcNAc(b1-3)GalNAc
# Outline: as §1
# [20] = molecular target: Gal(b1-4)GlcNAc(b1-3)[Gal(b1-4)GlcNAc(b1-6)]Gal(b1-4)GlcNAc
# Outline: as §1
# [21] = molecular target: Gal(b1-4)GlcNAc(b1-3)[Gal(b1-4)GlcNAc(b1-6)]GalNAc
# Outline: as §1
# [22] = molecular target: Gal(b1-4)GlcNAc(b1-3)[GlcNAc(b1-6)]Gal(b1-4)GlcNAc
# Outline: as §1
# [23] = molecular target: Gal(b1-4)GlcNAc(b1-6)Gal(b1-4)GlcNAc
# Outline: as §1
# [24] = molecular target: Gal(b1-4)GlcNAc(b1-6)Gal(b1-4)GlcNAc(b1-6)GalNAc
# Outline: as §1
# [25] = molecular target: Gal(b1-4)GlcNAc(b1-6)GalNAc
# Outline: as §1
# [26] = molecular target: Gal(b1-4)GlcNAc(b1-6)[Gal(b1-3)]GalNAc
# Outline: as §1
# Gal(b1-4)GlcNAc6P = molecular target: Gal(b1-4)GlcNAc6P
# Outline: as §1
# Gal(b1-6)Gal = molecular target: Gal(b1-6)Gal
# Outline: as §1
# Gal3S(b1-3)GalNAc = molecular target: Gal3S(b1-3)GalNAc
# Outline: as §1
# Gal3S(b1-3)GlcNAc = molecular target: Gal3S(b1-3)GlcNAc
# Outline: as §1
# [27] = molecular target: Gal3S(b1-3)[Fuc(a1-4)]GlcNAc
# Outline: as §1
# Gal3S(b1-4)Glc = molecular target: Gal3S(b1-4)Glc
# Outline: as §1
# Gal3S(b1-4)Glc6S = molecular target: Gal3S(b1-4)Glc6S
# Outline: as §1
# Gal3S(b1-4)GlcNAc = molecular target: Gal3S(b1-4)GlcNAc
# Outline: as §1
# Gal3S(b1-4)GlcNAc6S = molecular target: Gal3S(b1-4)GlcNAc6S
# Outline: as §1
# [28] = molecular target: Gal3S(b1-4)[Fuc(a1-3)]Glc
# Outline: as §1
# [29] = molecular target: Gal3S(b1-4)[Fuc(a1-3)]Glc6S
# Outline: as §1
# Gal3S4S(b1-4)GlcNAc = molecular target: Gal3S4S(b1-4)GlcNAc
# Outline: as §1
# Gal3S6S(b1-4)GlcNAc = molecular target: Gal3S6S(b1-4)GlcNAc
# Outline: as §1
# Gal3S6S(b1-4)GlcNAc6S = molecular target: Gal3S6S(b1-4)GlcNAc6S
# Outline: as §1
# Gal4S(b1-4)GlcNAc = molecular target: Gal4S(b1-4)GlcNAc
# Outline: as §1
# Gal4S6S(b1-4)GlcNAc = molecular target: Gal4S6S(b1-4)GlcNAc
# Outline: as §1
# Gal6P(b1-4)GlcNAc = molecular target: Gal6P(b1-4)GlcNAc
# Outline: as §1
# Gal6S(b1-3)GlcNAc = molecular target: Gal6S(b1-3)GlcNAc
# Outline: as §1
# Gal6S(b1-3)GlcNAc6S = molecular target: Gal6S(b1-3)GlcNAc6S
# Outline: as §1
binder,measurement,setting,value
B1,glycan array binding signal (z-score),[1],2.4
same,glycan array binding signal (z-score),[2],-0.242
same,glycan array binding signal (z-score),[3],1.09
same,glycan array binding signal (z-score),[4],2.92
same,glycan array binding signal (z-score),[5],-0.045
same,glycan array binding signal (z-score),[6],-0.055
same,glycan array binding signal (z-score),[7],-0.245
same,glycan array binding signal (z-score),[8],-0.219
same,glycan array binding signal (z-score),[9],-0.266
same,glycan array binding signal (z-score),[10],2.66
same,glycan array binding signal (z-score),[11],0.618
same,glycan array binding signal (z-score),[12],3.71
same,glycan array binding signal (z-score),[13],-0.253
same,glycan array binding signal (z-score),[14],-0.248
same,glycan array binding signal (z-score),[15],-0.253
same,glycan array binding signal (z-score),[16],-0.25
same,glycan array binding signal (z-score),[17],-0.266
same,glycan array binding signal (z-score),[18],-0.254
same,glycan array binding signal (z-score),[19],-0.253
same,glycan array binding signal (z-score),[20],-0.251
same,glycan array binding signal (z-score),[21],-0.269
same,glycan array binding signal (z-score),[22],-0.248
same,glycan array binding signal (z-score),[23],-0.251
same,glycan array binding signal (z-score),[24],-0.129
same,glycan array binding signal (z-score),[25],-0.263
same,glycan array binding signal (z-score),[26],-0.249
same,glycan array binding signal (z-score),Gal(b1-4)GlcNAc6P,-0.27
same,glycan array binding signal (z-score),Gal(b1-6)Gal,-0.269
same,glycan array binding signal (z-score),Gal3S(b1-3)GalNAc,-0.229
same,glycan array binding signal (z-score),Gal3S(b1-3)GlcNAc,-0.263
same,glycan array binding signal (z-score),[27],-0.259
same,glycan array binding signal (z-score),Gal3S(b1-4)Glc,-0.253
same,glycan array binding signal (z-score),Gal3S(b1-4)Glc6S,-0.249
same,glycan array binding signal (z-score),Gal3S(b1-4)GlcNAc,-0.254
same,glycan array binding signal (z-score),Gal3S(b1-4)GlcNAc6S,-0.243
same,glycan array binding signal (z-score),[28],-0.248
same,glycan array binding signal (z-score),[29],-0.266
same,glycan array binding signal (z-score),Gal3S4S(b1-4)GlcNAc,-0.251
same,glycan array binding signal (z-score),Gal3S6S(b1-4)GlcNAc,-0.248
same,glycan array binding signal (z-score),Gal3S6S(b1-4)GlcNAc6S,-0.241
same,glycan array binding signal (z-score),Gal4S(b1-4)GlcNAc,-0.247
same,glycan array binding signal (z-score),Gal4S6S(b1-4)GlcNAc,-0.247
same,glycan array binding signal (z-score),Gal6P(b1-4)GlcNAc,-0.273
same,glycan array binding signal (z-score),Gal6S(b1-3)GlcNAc,-0.268
same,glycan array binding signal (z-score),Gal6S(b1-3)GlcNAc6S,-0.271
